{"source": "the RNAGym collection of RNA variant scans (doi:10.1093/nar/gkz1192)", "parents": {"B1": {"name": "CPEB3 Ribozyme (parent)", "chain": "UAACAGGGGGCCACAGCAGAAGCGUUCACGUCGCAGCCCCUGUCAGAUUCUGGUGAAUCUGCGAAUUCUGCUGUAUAUCUC"}}, "note": "Read counts are not given, so values of variants with three or more changes are uncertain."}
{"variants_of": "B1", "assay": "self-cleavage, relative activity (ratio to wild type); higher = more cleavage; in vitro, sequencing", "outline": "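For each CPEB3 ribozyme variant, relative activity is its cleaved/total read fraction divided by the unmutated ribozyme's. Barcoded error-prone PCR libraries were transcribed by T7 RNA polymerase (5 hours, 37°C) and held in DNase I for 15 min before an EDTA stop, with cleavage occurring throughout. Template-switching reverse transcription and Illumina sequencing were used to read the RNAs. A 5-read minimum applied, and results are the mean of three batches.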"}
{"variant": "A13C A28G A45G A64G", "self-cleavage": 0.25}
{"variant": "A13C G22A U25C A56U C71G", "self-cleavage": 0.18}
{"variant": "C12U U41C A45C U60C U66G", "self-cleavage": 0}
{"variant": "C12U U67C U72C", "self-cleavage": 0.31}
{"variant": "A13G A15U A20G", "self-cleavage": 0.42}
{"variant": "A13C U31C U58G U72C", "self-cleavage": 0.23}
{"variant": "A13C U26C A57G", "self-cleavage": 0.35}
{"variant": "C12U U43C G70U", "self-cleavage": 0.16}
{"variant": "A13C A20G A35G U41C U72C", "self-cleavage": 1.17}
{"variant": "A13C G33A U41C", "self-cleavage": 0.24}
{"variant": "A13C U51C U54A C59U U72A", "self-cleavage": 0.34}
{"variant": "A13C U31C U48C U67A U76C U80G", "self-cleavage": 0.21}
{"variant": "A13G A15G U49A U60C U67C U76C", "self-cleavage": 0.03}
{"variant": "C12U A35G U60G A75U", "self-cleavage": 0.83}
{"variant": "A13G A15U U43A U58C U60A G73A U80A", "self-cleavage": 0.16}
{"variant": "A13C C23U U78C", "self-cleavage": 0.25}
{"variant": "C12U G24A A35G U74G", "self-cleavage": 0.1}
{"variant": "A13C A18G A64G U69C U72C", "self-cleavage": 0.84}
{"variant": "A13C U26C A45G", "self-cleavage": 0.19}
{"variant": "A13C A15G C68A", "self-cleavage": 0.24}
{"variant": "C12U U26C U74C", "self-cleavage": 1.01}
{"variant": "A13C C29A C32U C71U", "self-cleavage": 0.13}
{"variant": "A13C A18G U49A U78C", "self-cleavage": 0.31}
{"variant": "C12U A47G U74C", "self-cleavage": 1.3}
{"variant": "A13C U74C A77G", "self-cleavage": 1.18}
{"variant": "A13G A15G U41C U48A C68G A75G U78C", "self-cleavage": 0.03}
{"variant": "C12U U67A U78C U80C", "self-cleavage": 0.33}
{"variant": "C12U A35G A56G A64G A77U", "self-cleavage": 1.07}
{"variant": "C12U U25A C44U A65G", "self-cleavage": 0.08}
{"variant": "A13C U60G C68A U69C", "self-cleavage": 0.1}
{"variant": "A13C A20G U74A", "self-cleavage": 0.87}
{"variant": "A13G A15U U25C", "self-cleavage": 0.06}
{"variant": "C12U U58C U80A", "self-cleavage": 0.93}
{"variant": "C12U C17U U54A U78C", "self-cleavage": 1.01}
{"variant": "A13G A15G U25C U78C", "self-cleavage": 0.09}
{"variant": "A13C A18G C39U G52C A65U", "self-cleavage": 0.08}
{"variant": "C12U U41C A77U", "self-cleavage": 1.27}
{"variant": "C12U U43C U49C", "self-cleavage": 0.31}
{"variant": "A13G A15G A65G U74A", "self-cleavage": 0.31}
{"variant": "A13C A20G C39A U41G U67C U74A", "self-cleavage": 0.05}
{"variant": "A13C A35U U41C G42A A47G", "self-cleavage": 0.16}
{"variant": "A13G A15C U60C U69A", "self-cleavage": 0.4}
{"variant": "A13G A15G C34U", "self-cleavage": 0.27}
{"variant": "A13G A15C A56G G63U A64G", "self-cleavage": 0.41}
{"variant": "A13G A15U C38A G42U", "self-cleavage": 0.24}
{"variant": "A13G A15G U31C U58C A65U U72C", "self-cleavage": 0.1}
{"variant": "A13C U25C U31G G63U", "self-cleavage": 0.33}
{"variant": "A13C A18G A21C U43C", "self-cleavage": 0.24}
{"variant": "A13C C40U A57G", "self-cleavage": 0.25}
{"variant": "A13C A18U U72A", "self-cleavage": 0.15}
{"variant": "A13C A21G G33A U58C", "self-cleavage": 0.08}
{"variant": "C12U C14U A20U A45G U60C", "self-cleavage": 0.62}
{"variant": "A13G A15U U49C U60G", "self-cleavage": 0}
{"variant": "A13C A20G U31C U51C U60A", "self-cleavage": 0.03}
{"variant": "C12U U25A U26C A28G U78C", "self-cleavage": 0.06}
{"variant": "C12U U41C U51C", "self-cleavage": 0.88}
{"variant": "C12U U41C U51A", "self-cleavage": 1.41}
{"variant": "A13G A15G C40U U67C", "self-cleavage": 0.14}
{"variant": "C12U U49A A64U", "self-cleavage": 0.23}
{"variant": "C12U U25C U41A U51G U66C", "self-cleavage": 0.08}
{"variant": "C12U A35U U43C", "self-cleavage": 0.78}
{"variant": "A13C U25A U26C A35G U69G", "self-cleavage": 0.14}
{"variant": "C12U G36C U78C", "self-cleavage": 0.19}
{"variant": "A13G A15U A21C A35U U69G", "self-cleavage": 0.06}
{"variant": "A13G A15U A20U A28G U72C", "self-cleavage": 0.07}
{"variant": "A13C A47G G52A", "self-cleavage": 0.96}
{"variant": "A13C U67C U74A", "self-cleavage": 0.16}
{"variant": "A13G A15U A18G U26C G52C A64U A65U", "self-cleavage": 0.05}
{"variant": "A13C U41C G46A A57G", "self-cleavage": 0.49}
{"variant": "C12U U25C U69C", "self-cleavage": 0.15}
{"variant": "C12U U31A U41C", "self-cleavage": 0.87}
{"variant": "C12U G19U U25A A64U", "self-cleavage": 0.05}
{"variant": "A13C A21C U41C A45G A64G", "self-cleavage": 0.23}
{"variant": "A13C A35G A56G U69C", "self-cleavage": 1}
{"variant": "A13G A15G A18G U80C", "self-cleavage": 0.08}
{"variant": "C12U U41A A64U", "self-cleavage": 0.16}
{"variant": "C12U U41C U43A A47G U51A", "self-cleavage": 0.93}
{"variant": "C12U U69C A77U", "self-cleavage": 0.96}
{"variant": "A13C U41C U60C U76C U80C", "self-cleavage": 0.92}
{"variant": "A13C A15U U25C A35U U51C", "self-cleavage": 0.23}
{"variant": "A13C U31C U67C", "self-cleavage": 0.43}
{"variant": "A13C U41C U51A U67G G70A U72A", "self-cleavage": 0.17}
{"variant": "C12U A35G U69A U76C", "self-cleavage": 0.74}
